Laboratory results as given in PMC6446853.
Results are given in words; binding and its absence hold for the method and conditions named. Binding seen in cells or lysates may run through a third protein. Some results given as binding are weak or reduced against the parent protein; the word gives no strength.

Chains of the proteins cited; added tags and fusions are not shown.
UniProt P14635: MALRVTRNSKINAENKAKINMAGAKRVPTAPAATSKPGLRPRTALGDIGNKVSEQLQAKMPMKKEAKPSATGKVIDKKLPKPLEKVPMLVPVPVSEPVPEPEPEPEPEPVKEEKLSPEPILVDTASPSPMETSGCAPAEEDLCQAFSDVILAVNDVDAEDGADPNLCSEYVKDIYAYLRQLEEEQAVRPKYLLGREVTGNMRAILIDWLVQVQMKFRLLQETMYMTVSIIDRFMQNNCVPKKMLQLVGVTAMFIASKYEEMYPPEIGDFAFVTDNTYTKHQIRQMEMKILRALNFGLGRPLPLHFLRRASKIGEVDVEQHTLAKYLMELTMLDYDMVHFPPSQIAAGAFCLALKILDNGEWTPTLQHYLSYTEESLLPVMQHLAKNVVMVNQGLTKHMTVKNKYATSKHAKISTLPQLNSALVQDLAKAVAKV
UniProt Q14980: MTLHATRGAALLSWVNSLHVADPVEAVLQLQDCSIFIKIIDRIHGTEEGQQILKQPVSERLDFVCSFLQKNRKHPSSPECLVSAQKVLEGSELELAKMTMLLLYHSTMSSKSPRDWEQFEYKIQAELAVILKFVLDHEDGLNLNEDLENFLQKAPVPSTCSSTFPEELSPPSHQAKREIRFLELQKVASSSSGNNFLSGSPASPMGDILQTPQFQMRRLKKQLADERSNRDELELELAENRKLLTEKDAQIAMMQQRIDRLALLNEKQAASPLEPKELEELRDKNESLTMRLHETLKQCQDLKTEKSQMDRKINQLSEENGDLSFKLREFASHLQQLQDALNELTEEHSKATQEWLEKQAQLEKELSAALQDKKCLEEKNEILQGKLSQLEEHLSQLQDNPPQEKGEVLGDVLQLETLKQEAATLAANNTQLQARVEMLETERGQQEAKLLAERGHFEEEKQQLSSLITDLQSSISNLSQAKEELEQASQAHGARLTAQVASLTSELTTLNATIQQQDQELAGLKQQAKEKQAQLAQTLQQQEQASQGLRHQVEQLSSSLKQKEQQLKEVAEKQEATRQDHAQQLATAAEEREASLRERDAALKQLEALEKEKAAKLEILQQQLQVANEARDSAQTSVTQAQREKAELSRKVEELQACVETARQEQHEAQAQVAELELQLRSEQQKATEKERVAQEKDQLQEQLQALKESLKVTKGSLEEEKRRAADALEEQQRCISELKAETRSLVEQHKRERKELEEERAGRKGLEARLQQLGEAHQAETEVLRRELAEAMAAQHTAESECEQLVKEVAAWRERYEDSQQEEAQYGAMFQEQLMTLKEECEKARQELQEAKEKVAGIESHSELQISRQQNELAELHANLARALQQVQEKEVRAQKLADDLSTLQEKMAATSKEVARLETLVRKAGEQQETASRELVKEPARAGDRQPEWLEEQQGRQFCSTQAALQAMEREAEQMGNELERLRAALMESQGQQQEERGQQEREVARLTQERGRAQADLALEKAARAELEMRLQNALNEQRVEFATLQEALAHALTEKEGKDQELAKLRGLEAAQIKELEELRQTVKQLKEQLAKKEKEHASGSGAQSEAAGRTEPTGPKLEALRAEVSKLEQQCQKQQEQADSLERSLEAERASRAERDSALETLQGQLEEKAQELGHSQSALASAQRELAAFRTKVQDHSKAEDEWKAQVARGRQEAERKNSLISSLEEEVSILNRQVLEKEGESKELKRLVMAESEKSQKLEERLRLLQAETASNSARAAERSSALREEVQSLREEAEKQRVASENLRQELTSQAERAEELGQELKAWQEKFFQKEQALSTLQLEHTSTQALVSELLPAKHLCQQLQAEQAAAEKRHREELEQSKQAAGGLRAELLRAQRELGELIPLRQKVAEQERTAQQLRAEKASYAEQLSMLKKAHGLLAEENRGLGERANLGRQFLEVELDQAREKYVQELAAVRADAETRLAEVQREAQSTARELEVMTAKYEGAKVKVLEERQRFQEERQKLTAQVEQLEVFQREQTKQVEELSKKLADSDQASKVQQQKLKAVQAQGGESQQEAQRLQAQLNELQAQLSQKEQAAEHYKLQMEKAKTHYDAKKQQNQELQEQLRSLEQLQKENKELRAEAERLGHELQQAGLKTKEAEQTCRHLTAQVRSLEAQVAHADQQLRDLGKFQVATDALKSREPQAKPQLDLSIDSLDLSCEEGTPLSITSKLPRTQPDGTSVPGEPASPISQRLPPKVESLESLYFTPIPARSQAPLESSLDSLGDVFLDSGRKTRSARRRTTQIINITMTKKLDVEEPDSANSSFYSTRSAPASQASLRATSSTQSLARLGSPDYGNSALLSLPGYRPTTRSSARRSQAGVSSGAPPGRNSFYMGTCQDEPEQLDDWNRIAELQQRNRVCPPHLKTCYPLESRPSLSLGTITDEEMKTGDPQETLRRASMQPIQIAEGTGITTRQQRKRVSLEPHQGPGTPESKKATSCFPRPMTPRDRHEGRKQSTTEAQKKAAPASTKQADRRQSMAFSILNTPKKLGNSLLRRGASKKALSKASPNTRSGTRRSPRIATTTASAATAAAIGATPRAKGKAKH

Experiments:
[1] = target: T1, mCh-MAD1^241–718 (human) (UniProt Q9Y6D9); test: co-IP; cells cotransfected for 20 h with Myc-CCNB1 and mCherry-MAD1 constructs (HEK293T in the methods, HeLa in the legend); MAD1 IP with sheep anti-mCherry; Western blot for Myc
T1 sequence: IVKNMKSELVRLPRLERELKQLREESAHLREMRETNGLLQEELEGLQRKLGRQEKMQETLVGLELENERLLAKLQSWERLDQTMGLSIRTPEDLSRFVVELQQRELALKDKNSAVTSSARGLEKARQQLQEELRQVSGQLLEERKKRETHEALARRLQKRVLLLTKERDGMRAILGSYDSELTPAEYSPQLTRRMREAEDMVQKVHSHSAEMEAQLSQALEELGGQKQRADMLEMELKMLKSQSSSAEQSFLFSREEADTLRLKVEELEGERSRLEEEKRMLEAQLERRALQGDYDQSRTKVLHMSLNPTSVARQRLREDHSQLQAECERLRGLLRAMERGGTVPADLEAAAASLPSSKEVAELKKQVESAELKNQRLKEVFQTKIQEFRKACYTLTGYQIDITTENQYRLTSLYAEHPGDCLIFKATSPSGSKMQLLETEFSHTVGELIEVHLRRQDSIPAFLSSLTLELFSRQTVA

[2] = target: T2, mCh-MAD1^101–718 (human) (UniProt Q9Y6D9); test: as above
T2 sequence: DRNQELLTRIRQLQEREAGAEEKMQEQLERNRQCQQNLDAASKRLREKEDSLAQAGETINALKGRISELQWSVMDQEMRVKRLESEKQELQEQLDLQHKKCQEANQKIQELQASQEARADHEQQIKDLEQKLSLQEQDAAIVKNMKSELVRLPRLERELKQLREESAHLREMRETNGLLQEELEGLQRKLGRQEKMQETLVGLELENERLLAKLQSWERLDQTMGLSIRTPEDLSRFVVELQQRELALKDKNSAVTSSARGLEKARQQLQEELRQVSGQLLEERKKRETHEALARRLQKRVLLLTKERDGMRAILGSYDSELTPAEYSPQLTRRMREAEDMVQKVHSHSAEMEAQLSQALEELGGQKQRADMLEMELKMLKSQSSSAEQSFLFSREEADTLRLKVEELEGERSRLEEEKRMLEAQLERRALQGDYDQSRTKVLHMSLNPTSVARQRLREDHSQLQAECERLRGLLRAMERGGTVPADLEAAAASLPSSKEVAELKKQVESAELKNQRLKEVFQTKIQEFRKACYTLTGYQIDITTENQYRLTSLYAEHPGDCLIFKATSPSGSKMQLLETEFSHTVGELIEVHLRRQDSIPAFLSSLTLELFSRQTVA

[3] = target: T3, full-length mCh-MAD1 (human) (UniProt Q9Y6D9); test: as above
T3 sequence: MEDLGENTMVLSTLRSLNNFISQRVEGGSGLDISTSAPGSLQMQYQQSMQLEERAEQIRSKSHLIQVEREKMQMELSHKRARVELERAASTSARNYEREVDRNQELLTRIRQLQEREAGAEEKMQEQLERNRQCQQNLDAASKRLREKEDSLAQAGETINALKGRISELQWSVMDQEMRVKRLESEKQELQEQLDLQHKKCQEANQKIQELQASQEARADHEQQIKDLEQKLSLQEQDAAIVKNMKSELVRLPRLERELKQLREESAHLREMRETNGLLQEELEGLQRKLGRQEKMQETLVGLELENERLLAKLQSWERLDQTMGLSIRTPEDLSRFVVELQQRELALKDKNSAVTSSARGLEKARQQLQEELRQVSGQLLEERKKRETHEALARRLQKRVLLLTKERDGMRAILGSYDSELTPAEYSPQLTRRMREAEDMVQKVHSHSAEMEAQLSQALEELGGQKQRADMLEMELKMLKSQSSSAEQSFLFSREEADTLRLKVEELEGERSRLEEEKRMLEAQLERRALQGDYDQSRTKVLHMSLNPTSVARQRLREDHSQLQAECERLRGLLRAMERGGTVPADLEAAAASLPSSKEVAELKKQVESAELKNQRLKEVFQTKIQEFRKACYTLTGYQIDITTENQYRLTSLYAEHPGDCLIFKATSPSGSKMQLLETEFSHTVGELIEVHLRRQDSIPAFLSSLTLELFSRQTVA

[4] = target: CCNB1-mCherry (cyclin B1 tagged at the endogenous locus) (human (endogenous in HeLa)) (UniProt P14635); test: co-IP; CCNB1-mCherry precipitated with anti-mCherry antibodies from CCNB1-mCh or parental HeLa cells arrested in mitosis; Western blotting; also tested without ongoing MPS1 activity (Fig. S2 B)

binding [1] | binding [2] | binding [3] | binding [4] | Substance
no binding | no binding | binds |  | Myc-CCNB1 (from UniProt P14635 1-433)
 |  |  | binds | spindle protein NuMA (from UniProt Q14980 1-2115)
